Measured values reported in paper PMC4336329 (PLoS ONE, 2015).
Screen size: about 310,000 compounds; about 14,000 (4.5%) showed an effect of 50% or more. Effects have a minus sign here. This is one part of the list.

Target: human ether-à-go-go-related gene (hERG) potassium channel (human, UniProt Q12809)
Assay: primary screen, population patch clamp on CHO cells stably expressing hERG
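Also: peak tail current of the secondary pulse compared with the same well before compound.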

Sequence of human ether-à-go-go-related gene (hERG) potassium channel (Q12809 whole entry, looked up): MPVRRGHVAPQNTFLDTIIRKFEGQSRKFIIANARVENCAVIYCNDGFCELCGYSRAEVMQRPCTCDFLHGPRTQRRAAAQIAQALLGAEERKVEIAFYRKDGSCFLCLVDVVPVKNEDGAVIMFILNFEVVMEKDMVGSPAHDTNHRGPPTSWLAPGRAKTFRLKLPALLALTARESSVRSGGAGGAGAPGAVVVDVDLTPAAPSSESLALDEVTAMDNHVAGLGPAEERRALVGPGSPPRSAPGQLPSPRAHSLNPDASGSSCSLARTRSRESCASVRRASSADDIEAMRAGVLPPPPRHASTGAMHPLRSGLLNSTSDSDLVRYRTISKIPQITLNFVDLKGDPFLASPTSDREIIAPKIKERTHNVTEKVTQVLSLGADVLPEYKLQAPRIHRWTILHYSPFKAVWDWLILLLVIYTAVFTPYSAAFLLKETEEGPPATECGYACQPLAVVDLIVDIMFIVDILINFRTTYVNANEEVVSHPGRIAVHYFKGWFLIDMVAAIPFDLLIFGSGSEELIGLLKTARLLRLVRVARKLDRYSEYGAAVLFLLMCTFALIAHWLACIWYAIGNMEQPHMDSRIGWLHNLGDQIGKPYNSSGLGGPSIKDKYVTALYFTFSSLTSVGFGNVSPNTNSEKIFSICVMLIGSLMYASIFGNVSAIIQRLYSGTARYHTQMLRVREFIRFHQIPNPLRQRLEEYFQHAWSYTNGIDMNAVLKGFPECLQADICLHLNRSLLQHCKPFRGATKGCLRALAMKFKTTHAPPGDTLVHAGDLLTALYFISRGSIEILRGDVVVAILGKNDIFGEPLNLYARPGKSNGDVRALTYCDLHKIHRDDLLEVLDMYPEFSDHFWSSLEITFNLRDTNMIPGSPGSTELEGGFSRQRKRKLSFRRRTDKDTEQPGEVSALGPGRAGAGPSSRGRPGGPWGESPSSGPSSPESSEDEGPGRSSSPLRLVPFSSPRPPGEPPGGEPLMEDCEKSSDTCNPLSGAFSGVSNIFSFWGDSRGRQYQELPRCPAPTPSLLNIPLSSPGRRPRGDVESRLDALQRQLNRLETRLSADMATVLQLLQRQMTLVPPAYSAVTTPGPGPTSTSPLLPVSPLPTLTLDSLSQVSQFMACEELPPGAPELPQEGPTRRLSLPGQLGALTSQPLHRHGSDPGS

Row | Structure (SMILES) | hERG current change (%, negative = inhibition) at 10uM [%]
1 | O=C(Nc1nc(-c2cccnc2)cs1)c1ccccc1[N+](=O)[O-] | 8.67
2 | CCC1Oc2ccc(C)cc2N(CC(=O)NCCCN2CCCCC2CC)C1=O (stereo not drawn) | -7.91
3 | CC1(C)C2CCC1(C)C(OC(=O)CSc1nc(N)cc(=O)[nH]1)C2 (stereo not drawn) | -0.25
4 | O=C(NCc1n[nH]c(=S)n1-c1ccc(F)cc1)c1ccc(S(=O)(=O)N2CCOCC2)cc1 | 23.4
5 | Cc1cc(C)c2c(=O)[nH]c(SCc3ccccc3C)nc2n1 | 8.96
6 | COc1ccccc1/C=C/CN1CCC(n2nccc2NC(=O)C2CC2)CC1 | -59.1
7 | CCOC(=O)C(=NC1CCS(=O)(=O)C1)NNc1ccc(Br)cc1 (stereo not drawn) | -27.4
8 | CCOC(=O)c1cc(-c2ccc(C)cc2)n(CCC(=O)NCCN(C)C)c1C | -14.6
9 | CCN(CC(=O)Nc1ccc(NC(C)=O)cc1)C(=O)c1cccnc1Sc1ccc(C)c(C)c1 | 2.06
10 | COc1cccc(N2C(=O)C3C(C2=O)C2C=CC3C23CC3)c1 (stereo not drawn) | -13
11 | Cc1c(NC(=O)CS(=O)(=O)c2ccccc2)c(=O)n(-c2ccccc2)n1C | 4.21
12 | Cc1ccc(S(=O)(=O)NC(=O)NC(C)(C)C)cc1 | -21.3
13 | O=C(NCCCn1ccnc1)c1cc(-c2ccncc2)nc2ccccc12 | -56.3
14 | COCC(=O)N1CCCC(C(=O)c2ccc(-c3ccccc3)cc2)C1 (stereo not drawn) | -13.5
15 | O=C(CSc1nc2sc3c(c2c(=O)[nH]1)CCCC3)NCCO | 7.38
16 | CC(C)(C)Cc1nnc(NC(=O)c2cc(-c3ccccc3)nc3ccccc23)s1 | 11.7
17 | COc1ccc(-c2cc3c(=O)n(CC(=O)Nc4ccc(Cl)cc4)nc(C)n3n2)cc1 | 12.3
18 | O=C(Nc1cc(Sc2ccccn2)cc([N+](=O)[O-])c1)c1ccc(Cl)cc1 | 11.6
19 | Cc1ccc(OCC(=O)N2CCN(C3CCC(c4ccccc4)CC3)CC2)cc1.O=C(O)C(=O)O (stereo not drawn) | -62.8

Row | Structure (SMILES) | hERG current change (%, negative = inhibition) at 10uM [%]
20 | O=C(COC(=O)/C=C/c1ccc(OC(F)F)cc1)NC(=O)NCc1ccccc1 | 0.96
21 | Cc1ccc(OCc2nnc(SCC(=O)NC3CCCCC3)n2C)cc1 | -19.5
22 | Cn1c(CNC(=O)c2cccs2)nnc1SCC(=O)Nc1ccc(Cl)cc1 | -35.4
23 | CC(C)CCOc1ccc(CO[C@@H]2[C@H]3OC(C)(C)O[C@H]3O[C@@H]2C(O)CO)cc1 (stereo partly drawn) | 19.7
24 | CCOC(=O)C1=C(CN2CCc3ccccc32)NC(=O)NC1c1cc(C)ccc1C (stereo not drawn) | 0.809
25 | C=CCSc1nc(=O)n2ccc(C)cc2n1 | -22.9
26 | COCCNc1nc2ccccc2n2cnnc12 | 14.3
27 | NC(=O)Cc1c[nH]c2cccc(O)c12 | -0.942
28 | COc1ccc(NC(=O)Cc2coc3cc(C)ccc23)cc1S(=O)(=O)N1CCOCC1 | -21.4
29 | CC(C)Sc1oc(-c2ccco2)nc1S(=O)(=O)c1ccccc1 | -5.66
30 | COc1cnc(-c2ccccn2)nc1N(C)c1ccccc1 | 14.2
31 | COC(=O)/C(=C\Nc1ccc(Cl)cc1Cl)NC(=O)c1ccc(OC)cc1 | 5.27
32 | Cc1ccc(C2NC(=S)NC3=C2C(=O)CC(C)(C)C3)cc1 (stereo not drawn) | -1.44
33 | COc1cc(C2C3C(C)N(C)C(=O)N(C)C3N(C)C(=O)N2C)ccc1O (stereo not drawn) | 21.4
34 | O=C(O)CCC(=O)NNC(=O)c1ccc(-c2ccccc2)cc1 | 6.3
35 | COc1ccc(C(CNC(=O)Cc2cc(OC)c(OC)c(OC)c2)N2CCCC2)cc1 (stereo not drawn) | -6.97
36 | CC(C)(C)NC(=O)NC(=O)COC(=O)CNC(=O)c1cccc(F)c1 | 4.73
37 | Cc1nnc(NC(=O)CSc2nnc(-c3ccco3)n2C(C)C)s1 | 6.21
38 | OCCN1CCN(CC(O)C(F)(F)F)CC1 (stereo not drawn) | 4.71

Row | Structure (SMILES) | hERG current change (%, negative = inhibition) at 10uM [%]
39 | O=C(CNCc1ccccc1)Nc1ccccc1-c1ccccc1 | -27.1
40 | CN(CCO)C(=O)c1cccc2c1-c1ccccc1C2=O | 4.12
41 | CCC(=O)N1COC[C@@H]1Cc1ccccc1 | 25.4
42 | Cc1nc2ccccc2c(=O)n1N | 3.04
43 | CCN(CC)CCNC(=O)c1ccc(NC(=O)c2cccc(-n3cnnn3)c2)cc1 | 3.02
44 | Cc1c(NC(=S)N/N=C/C=C/c2ccc([N+](=O)[O-])cc2)c(=O)n(-c2ccccc2)n1C | 1.47
45 | S=C(Nc1ccccc1)NC1CCN(Cc2ccccc2)CC1 | -39.6
46 | CCOC(=O)c1ccccc1NC(=O)COC(=O)C1CC(=O)N(CCc2ccccc2)C1 (stereo not drawn) | -75.6
47 | COC(=O)c1cc(C(=O)OCC(=O)NC2CCCC2)cc([N+](=O)[O-])c1 | -6.58
48 | Cc1ccc(N(CC(=O)NCC(O)c2ccccc2)S(=O)(=O)c2ccc(C)cc2)cc1 (stereo not drawn) | -65.9
49 | COc1ccccc1C(=O)OCC(=O)NC1CCCC1 | 10.6
50 | CC1CCN(CCCNC(=O)C2CCC(CNS(=O)(=O)c3ccccc3)CC2)CC1 (stereo not drawn) | 5.02
51 | CCOc1ccc2nc(NC(=O)c3ccc(C)o3)sc2c1 | 24.8
52 | COc1ccc(OC)c(NC(=O)CCN2CCCC(C)C2)c1.Cl (stereo not drawn) | -8.33
53 | CC/C(Cc1ccccc1)=N/NC(=O)c1cccc(Br)c1 | -1.72
54 | O=C(CN1C(=O)NC2(CCCCC2)C1=O)NC1CCCc2ccccc21 (stereo not drawn) | -16.9
55 | CCNC(=S)N(CCc1c(C)[nH]c2ccc(C)cc12)Cc1cc(OC)c(OC)c(OC)c1 | -7.73
56 | CCOP(=O)(OCC)C(Nc1ccc(F)cc1)c1ccccc1 (stereo not drawn) | -7.64
57 | Brc1ccc(/C=N/N2CCN(C3c4ccccc4-c4ccccc43)CC2)s1 | 11.9
